In ChEMBL document CHEMBL4888484, “Replenishing the malaria drug discovery pipeline: Screening and hit evaluation of the MMV Hit Generation Library 1 (HGL1) against asexual blood stage Plasmodium falciparum ,using a nano luciferase reporter read-out” (2022):
Screen size: about 150,000 compounds; about 540 (0.36%) showed an effect of 50% or more. The list shows a part of the results. Where a SMILES comes first, the peptide text is derived from it. The star is where a group is joined. PhAc = O=C(Cc1ccccc1)*; NHPr = CCCN*

test system: Plasmodium falciparum; test: Primary screen in NF54 nanoGlo assay, in single point, at 2uM, 72h; a lower Z score goes with more inhibition; type: functional, Erythrocyte; details: timepoint 72 hour

SMILES | % Inhibition | Z score
O=C(O)[C@H](Cc1ccco1)n1cnc(-c2ccccc2)c1-c1c[nH]cn1 | 4% | -0.57
C[C@@H](CN1CC(c2ccccc2)(c2ccccc2)CCC1=O)N1CCOCC1 | -13% | 2.32
O=C(Nc1cc(C(F)(F)F)c[nH]c1=O)N1CC(Cc2ccco2)C1 | 0% | 0.03
CC(=O)c1ccc(NC(=O)c2ccc(Oc3nccs3)cc2)cc1 | -6% | 1.18
Cc1ccc2[nH]c(-c3cn(C)nc3-c3ccc4c(c3)OCCO4)nc2c1C | -4% | 0.83
Cc1cc(Br)ccc1N(C)C(=O)CCc1ccnn1C | -8% | 0.99
O=C(c1cscc1Cl)N1CC(C(F)F)C1 | -7% | 0.67
CC1CC1C(=O)NC1CCCCC1C(C)(C)C (configuration not stated) | 0% | 0.06
Cc1ccc(Nc2nc(N)nc(CN3CCCCCCC3)n2)cc1 | -5% | 0.66
CN1CCN(CC(=O)Nc2ccc([C@H]3CC[C@H](N(C)C(=O)c4ccc(Cl)cc4)CC3)cc2)CC1 | 12% | -1.32
Cc1cc(C)n(-c2ccc(CNC(=O)c3cccc(C(F)(F)F)c3)cc2)n1 | -14% | 1.64
Cc1cc2[nH]c(=O)[nH]c2c(NC(=O)c2ccc(CN)cc2)c1C | -13% | 1.24
C#CCNC(=O)c1ccc(C(N)=O)cn1 | -5% | 0.68
O=C(COc1ccc(Br)cc1)N(Cc1ccco1)c1ccc(Cl)cc1 | -24% | 3.23
CCCO[C@H]1CCCN(C(=O)NCC2CCC(F)(F)CC2)CC1 | -1% | 0.09
Cc1cc2nc3c(=O)n(C4CCCCC4)c(=O)n(C4CCCCC4)c3nc2cc1N | 14% | -2.64
Cc1cc(Nc2ccccc2C)n2nc(-c3ccco3)nc2n1 | -11% | 1.27
COc1ccccc1-c1nnc([C@H]2CCN(Cc3ccc4c(c3)OCO4)C2)o1 | -12% | 1.48
CCc1oc2c(NC(=O)N[C@@H](C)c3n[nH]c(C)n3)cc(Cl)cc2c1C | 7% | -1.22
Cc1cccc(NC(=O)C2CCN(c3nnc(C)c4c(C)n(-c5ccc(Cl)cc5)nc34)CC2)c1C | 7% | -0.86
CCn1c([C@H]2CCN(S(=O)(=O)c3cc(Cl)cc(Cl)c3)C2)nc2ccncc21 | 4% | -0.35
CC[C@@H](CNS(=O)(=O)N(C)C)Oc1ccccc1 | -17% | 1.54

SMILES | % Inhibition | Z score
O=C(c1ccccn1)c1ccccc1Cl | -16% | 1.99
CNc1ncc(CN(C)C(=O)c2csc(C)n2)cn1 | 0% | 0.03
O=C1CCC(c2ccccc2)=NN1c1ccccn1 | 4% | -0.72
Cc1cccnc1C[C@H](C)NS(=O)(=O)C(C)C | -9% | 1.81
CC1(c2cccnc2)NC(=O)N(CC(O)c2ccc(F)cc2)C1=O (configuration not stated) | 17% | -2.18
CC(NC1CC(=O)N(C(C)(C)C)C1)c1ncc(Br)s1 (configuration not stated) | -6% | 0.78
COc1ccc(N2C(=O)C3C4C=CC(C4=C4CCCC4)C3C2=O)cc1 (configuration not stated) | -8% | 1.04
N#Cc1cccc(NCCCOc2ccc(F)cc2)c1 | 5% | -0.85
CCO[C@H]1CN(C(=O)Cc2c(C)n[nH]c2C)C[C@@H]1O | -10% | 1.81
O=C1NCCCCCCN(C(=O)c2ccncc2)[C@H]2C[C@H](c3nc(-c4cnccn4)no3)C[C@@H]12 | -3% | 0.3
Fc1cccc(Cl)c1Cn1nc(C2CCOCC2)nc1Cn1cnnn1 | -5% | 0.93
Cc1cc(C)cc(N2C(=O)C3N=NN(c4cc(C)cc(C)c4)C3C2=O)c1 (configuration not stated) | 13% | -1.44
O=S(=O)(c1ccc2c(c1)OCCO2)N1CC[C@H](Oc2ccncc2Cl)C1 | -7% | 1.4
CCC[C@H](NC(=O)C(=O)N1CCCC1)c1nccn1C | -9% | 1.09
C[C@@H](CC1CCOCC1)NCc1cc(C#N)ccc1F | -1% | 0.09
Nc1nccnc1C(=O)NCC1(c2ccccc2)CC1 | -9% | 0.74
CCc1ccnc(C(=O)N[C@@H](C)C2(OC)CCC2)c1 | -12% | 1.82
CC(=O)N(CCc1ccccc1)Cc1nc(-c2cnn(C)c2)no1 | -2% | 0.36
CCCN1C(=O)c2cc(S(=O)(=O)N3CCCC[C@@H]3CC)ccc2Oc2cccnc21 | -6% | 1.08
COCC(=O)N(Cc1c(-c2ccccc2)nn(C)c1Oc1ccccc1)C1CC1 | -5% | 0.92
Cn1cc(Cc2nc(C3CN4CCCCC4CO3)no2)cn1 (configuration not stated) | -21% | 1.92
COc1cccc(O[C@@H](C)C(=O)N2CC(Oc3ccccc3C)C2)c1 | -9% | 1.07

SMILES | % Inhibition | Z score
COC(=O)C[C@H](NC(=O)c1cccc2cc[nH]c12)C1CC1 | 0% | 0.02
Cc1nc2ccc(C(=O)NCC3(c4ccccc4)CCN(C)CC3)cc2o1 | -13% | 1.29
N#Cc1ccc(C(=O)N(Cc2ccccc2)CC2(O)CCCC2)nc1 | -3% | 0.44
COCCN1CCN(c2nc3c(c(=O)[nH]2)Cc2ccccc2OC3)CC1 | -14% | 1.34
Cc1nnc2nc(-c3cccc(Cl)c3Cl)[nH]n12 | -3% | 0.33
CCCNC(=O)CNC(=O)CNC(=O)Cc1ccccc1 (PhAc-Gly-Gly-NHPr) | -5% | 0.78
O=C(NCc1cccnc1)N[C@H]1COc2cc(F)cc(F)c21 | -9% | 1.65
Cc1cc(C(=O)N2CCN3C(=O)OC[C@H]3C2)c(C)o1 | -4% | 0.64
COCCC1(NC(=O)c2ccccc2)CCN(Cc2ccccn2)CC1 | -12% | 1.55
COc1ccc(CCC(=O)N(Cc2cccc(O)c2)CC2CC2)cc1Cl | -2% | 0.21
CN(C[C@H]1CCOC1)c1nc2ccc(Cl)cc2s1 | -8% | 1.64
Cc1cccc(N[C@@H](C)C(=O)Nc2nnc(C)s2)c1 | -24% | 2.77
Cc1ccc2oc(C(=O)N3CCN(CC(C)(C)O)CC3)cc2n1 | -8% | 1.15
O=C(CCc1cc2n(n1)CCN(C(=O)c1ccc[nH]1)C2)N1CCOCC1 | -14% | 2.61
CNc1nc(CN(Cc2nccs2)C2CC2)cs1 | -4% | 0.79
CCN(CC)S(=O)(=O)c1ccc(NCc2ncccn2)cc1 | -11% | 0.99
Cc1cccc(N(CC(C)(C)C)C(=O)c2c3c(nn2C)CCC3)n1 | 5% | -0.83
CCOC(=O)N1CCN(C(=O)C[C@H]2C(=O)NCCN2Cc2ccc(F)cc2Cl)CC1 | 12% | -1.37
C=CCC(C)(CC=C)NS(=O)(=O)c1ccc(NC(C)=O)cc1 | -3% | 0.48
O=C(CN1CCCC[C@@H]1Cn1cncn1)N1CCc2ccccc2C1 | -14% | 1.45
Cc1cc(F)ccc1NC(=O)c1cnc(-c2ccccc2)nc1C | -7% | 1.06
O=C(Cc1c(F)cccc1Cl)N1CCC(=C2CC2)CC1 | -14% | 1.59

SMILES | % Inhibition | Z score
Cc1ccc(OCc2cc(C)no2)nc1 | -2% | 0.36
Cc1ccc(CN2CCN(Cc3c[nH]c4ccccc34)C[C@@H]2CCO)o1 | -20% | 1.76
COC[C@H](C)n1c(CCCC(=O)N2CCOC(C)(C)C2)nc2cccnc21 | -5% | 0.62
O=C(N[C@@H](C(F)F)C1CCCCC1)c1cc2n(n1)CCO2 | -2% | 0.28
CCn1c(CN2CCC(C(=O)OC)CC2)nc2cc(S(=O)(=O)N3CCCCC3)ccc21 | -3% | 0.72
Fc1ccc(-c2nc(-c3ccc(-n4ccnc4)nc3)no2)cc1 | -17% | 1.77
COc1ccc(CCC(=O)N2CCCN(C(=O)c3sc4cccc(F)c4c3C)CC2)cc1 | 4% | -0.71
CCc1ccc2nccc(N3CCC(n4ccnn4)CC3)c2c1 | -6% | 0.98
COc1cc(NCc2cc(F)cc3c(C)c(C)[nH]c23)ncn1 | -3% | 0.34
C[C@@H]1CN(Cc2nnnn2C)C[C@H](C)O1 | -1% | 0.2
CCn1c(CC2CCN(C(=O)c3c[nH]c(C)n3)CC2)nn(C)c1=O | 1% | -0.17
Cc1noc(OCC2CCS(=O)(=O)CC2)n1 | -4% | 0.62
CC(C)n1nccc1C(=O)N[C@@H](C)c1nc2cc(Cl)ccc2[nH]1 | -5% | 0.45
Cc1cccc(OCc2nc(CN(C)C(=O)Cc3ccccc3)cs2)c1C | -21% | 2.5
O=S(=O)(CCn1cc(CCc2ccccc2)nn1)N1CCCC1 | -13% | 2.38
O=C(NC1(C(=O)O)CCC1)C1CC1c1ccccc1OC(F)(F)F (configuration not stated) | 4% | -0.77
FC(F)Oc1cccc(CN2CC(c3ccccn3)C2)c1 | -2% | 0.45
CCN(C)S(=O)(=O)N1CCN(Cc2c(C)nc3n2CCCC3)CC1 | 49% | -5.81
Cc1cc(F)ccc1NC(=O)CN1CCC2(CCC(=O)N2C)CC1 | -3% | 0.46
O=C(CO)N1CCC[C@@]2(CCC(=O)N(Cc3ccccc3)C2)C1 | -2% | 0.33
